Test results: PubChem BioAssay AID686979 (National Center for Advancing Translational Sciences (NCATS), 2013)
Hit rate of the full screen: of about 420,000 compounds, about 50,000 (12%) were called active. The shares of active, inactive and inconclusive entries below differ from those in the screen. The call rests on the fitted dose curve; in most records, active means well fitted inhibition curve with a large enough effect; inconclusive means small, poorly fitted or top-dose-only effect; inactive means flat fitted curve, though single readings scatter. No potency is given beside an inconclusive call; the fits are too rough.

Experiment: qHTS for Inhibitors of human tyrosyl-DNA phosphodiesterase 1 (TDP1): qHTS in cells in presence of CPT; further: nearly all actives have a fitted effect of over 55% in size
Conditions: chicken DT40 Tdp1-/-;hTDP1 cells + 20 nM CPT, ATP luminescence, 48 h; activity change, negative = growth inhibition: at 46.2 µM (top of the series) unless noted
Procedure, shortened: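 Chicken DT40 Tdp1-/- cells stably complemented with human TDP1 were seeded at 400 cells/well in medium containing 20 nM camptothecin, exposed to pin-transferred compounds, and grown at 37 °C for at least 48 hr. Viability was read as ATP luminescence.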
On the % scale 0 is the no-effect control and ±100 the full control effect; potency means the concentration at half of the fitted maximal effect; tags describe the fitted curve by direction and shape.

SMILES | Potency | activity change, negative = growth inhibition
COc1ccc(S(=O)(=O)NNC(=O)c2ccc([N+](=O)[O-])cc2)cc1 | inconclusive [inhibitor, single point] | –
CCCc1nc2ccc(NC(=O)NCCC(=O)OCC)cc2c(=O)n1Cc1ccc(Cl)cc1 | inconclusive [inhibitor, single point] | –
CCC(C)NS(=O)(=O)c1ccc(S(=O)(=O)N(CC(=O)Nc2ccccc2)CC2CCCO2)cc1 (stereo not drawn) | – | inconclusive: -33.3% [inhibitor]
O=C(Nc1ccc(Cl)cc1)Nc1cccc2nsnc12 | inconclusive [inhibitor, single point] | –
N#CC1(c2ccccc2)CCCN1C(=O)c1ccc(Br)o1 (stereo not drawn) | inactive | –
COc1ccc(CCNC(=O)Cn2nc(-c3ccc(Cl)cc3)ccc2=O)cc1OC | inconclusive [inhibitor, single point] | –
CCOc1ccc(Nc2ncnc3onc(-c4ccc(Cl)cc4)c23)cc1 | inconclusive [inhibitor, single point] | –
CN(C)c1ccc(-c2cccc3nccn23)cc1 | inconclusive [inhibitor, single point] | –
COc1ccc(CN(C)CC2CCCN(CCc3ccc(F)cc3)C2)c(OC)c1OC (stereo not drawn) | active: 23.1 µM | –
Cc1nc2ccc(NC(=O)C(F)(F)F)cc2o1 | inconclusive [inhibitor, single point] | –
COCc1nnc(NC(=O)COc2ccc3c(c2)OCO3)s1 | inactive | –
O=C(OC1CCOC1=O)c1cc(S(=O)(=O)N2CCOCC2)c(Cl)cc1Cl (stereo not drawn) | inactive | –
Cc1nc2sccn2c(=O)c1S(=O)(=O)Nc1cccc(Cl)c1C | inconclusive [inhibitor, full curve, poor fit] | –
CCOC(=O)c1cc(-c2ccc(OC)cc2)n(CCC(=O)NCCc2ccc(OCC)c(OCC)c2)c1C | inconclusive [inhibitor, single point] | –
CN(C)c1ccc(N=Nc2ccccc2C(=O)OCC(=O)Nc2ccccc2C(F)(F)F)cc1 | inconclusive [inhibitor, partial curve, poor fit] | –
O=C(NN1CCOCC1)c1cc(-c2ccc(Cl)c(Cl)c2)nc2ccccc12 | inconclusive [inhibitor, full curve] | –
CC1=C(C(=O)OCc2ccccc2)C(c2ccc(Br)cc2)NC(=O)N1CCCC(=O)O (stereo not drawn) | inconclusive [inhibitor, partial curve] | –
COC(=O)c1ccc(/C=C/C(=O)c2ccc(OC)cc2)cc1 | inconclusive [inhibitor, single point] | –
OC1(C#CCCN2CCCCC2)c2ccccc2-c2ccccc21 | inactive | –
CN(C(=O)COC(=O)C1CCN(S(=O)(=O)c2c(Cl)cccc2Cl)CC1)C1CCCCC1 | inconclusive [inhibitor, single point] | –
CCOc1ccc(C(=O)NCC2CCCN2S(=O)(=O)c2cccs2)cc1 (stereo not drawn) | inconclusive [inhibitor, single point] | –
CCCOCC1CC2(SC(=Nc3ccc(C)cc3)NC2=O)C(=O)O1 (stereo not drawn) | inconclusive [inhibitor, single point] | –
O=C(NCc1ccco1)c1cc(-c2cccnc2)nc2ccc(Cl)cc12 | inconclusive [inhibitor, single point] | –

SMILES | Potency | activity change, negative = growth inhibition
Fc1ccccc1N1CCN(c2nnnn2-c2ccccc2)CC1 | inactive | –
COCCn1c(SCc2ccc(C)cc2)nc2c1c(=O)[nH]c(=O)n2C | inactive | –
CCC(CO)Oc1cc(NCc2ccc(F)cc2)c2ncn(C(C)C)c2c1 (stereo not drawn) | inconclusive [inhibitor, single point] | –
C[C@H]1CN([C@@H](C)CO)S(=O)(=O)c2ccc(Br)cc2O[C@H]1CN(C)Cc1ccccc1 | inconclusive [inhibitor, single point] | –
COc1ccc(-c2coc3c(C(=O)NCc4ccc(F)c(F)c4)cccc23)c(C)c1 | inconclusive [inhibitor, single point] | –
COc1ccc(/C=N/Nc2nc(N3CCCC3)nc(N3CCCC3)n2)cc1O | inactive | –
Cc1[nH]c(C)c(S(=O)(=O)N(Cc2ccccc2)C(C)(C)C)c1C(=O)N1CCCC1 | – | inconclusive: -30.9% [inhibitor]
COCCN(Cc1ccccc1)C(=O)c1cccc(S(=O)(=O)N2CCN(c3ccc(F)cc3)CC2)c1 | inconclusive [inhibitor, single point] | –
Cc1ccccc1Nc1nnc(-c2ccc(C)c(S(=O)(=O)NCC3CCCO3)c2)c2ccccc12 (stereo not drawn) | inconclusive [inhibitor, single point] | –
CCCc1[nH]n(-c2nc3ccccc3s2)c(=O)c1C=NCC(C)C | inconclusive [inhibitor, single point] | –
O=C1Nc2cc(C(=O)NCC3CCCO3)ccc2S/C1=C/c1ccccc1F (stereo not drawn) | inconclusive [inhibitor, single point] | –
Cc1ccc(C2C(=O)N(C3CCCCCC3)CC(=O)N2CCC2=CCCCC2)cc1 (stereo not drawn) | inconclusive [inhibitor, single point] | –
CN(c1cc(=O)n2ccccc2n1)C1CCCCC1 | inconclusive [inhibitor, single point] | –
COc1cc([N+](=O)[O-])ccc1NC(=O)N1CCC2(CC1)Nc1cc(F)ccc1-n1cccc12 | inconclusive [inhibitor, single point] | –
CN1OC[C@@H]2CN(C(=O)c3ccc(-c4ccccc4)cc3)[C@H](c3ccc(-c4cccc(F)c4)cc3)C[C@@H]21 | inconclusive [inhibitor, single point] | –
Cc1ccc(N2CCN(C(=O)CCS(=O)(=O)c3cc4c(cc3Cl)NC(=O)CO4)CC2)c(C)c1 | active: 23.1 µM | –
CC1CCN(c2nc3c(S(=O)(=O)c4cccc(Cl)c4)nnn3c3ccsc23)CC1 | inconclusive [inhibitor, single point] | –
Cc1ccc(S(=O)(=O)N2[C@@H](CO)CO[C@H]2CC(=O)c2ccc(F)cc2)cc1 | inactive | –
CCN(CC(=O)Nc1c(F)cccc1F)C(=O)CNC(=O)c1ccc(Br)o1 | inactive | –
CN(C(=O)COC(=O)c1ccccc1SCC(=O)N1CCCC1)c1ccccc1 | inactive | –
CN(C)c1ccc(CNC(=O)C2CCN(C(=O)c3ccc(-n4ccc5ccccc54)s3)CC2)cc1 | active: 20.6 µM | –
c1cc2c3c(cccc3c1)NC1(CCCCCC1)N2 | inconclusive [inhibitor, partial curve] | –
COc1ccc(C(=O)Nc2ccc3nc(C)c(C)nc3c2)cc1 | inconclusive [inhibitor, single point] | –

SMILES | Potency | activity change, negative = growth inhibition
COC(=O)c1ccc(OCC(O)CN2CCc3cc(OC)c(OC)cc3C2c2ccccc2)cc1 (stereo not drawn) | active: 5.8 µM | –
CCOC(=O)C1CCN(Cc2ccc(C(=O)OC)cc2)CC1 | inactive | –
Cn1ncc(Br)c1NC(=O)c1cc(Cl)cc(Cl)c1 | inactive | –
CCC(C)c1ccccc1NC(=O)COC(=O)c1ccc2[nH]c3c(c2c1)CCCC3 (stereo not drawn) | active: 16.4 µM | –
CCNC(=O)C1(C)CCCN(C(=O)c2cc(-c3cccs3)oc2C)C1 (stereo not drawn) | inconclusive [inhibitor, single point] | –
O=C(Nc1cccc(S(=O)(=O)N2CCCCC2)c1)[C@@H]1CCCN1S(=O)(=O)c1ccccc1C(F)(F)F | inconclusive [inhibitor, single point] | –
Cc1sc(NC(=O)c2ccco2)c(CN2CCN(c3ccccc3)CC2)c1C | active: 14.6 µM | –
CCOC(=O)c1ccc(NC(=O)C(CC)Sc2nncn3c2cc2oc(C)cc23)cc1 (stereo not drawn) | inconclusive [inhibitor, single point] | –
O=C(OCC#CCSc1nnc(-c2ccc([N+](=O)[O-])cc2)o1)c1cccs1 | inconclusive [inhibitor, single point] | –
O=C(NCCCN1CCOCC1)c1[nH]c(C(F)(F)F)nc1-c1ccccc1 | inactive | –
CCOC(=O)Cc1csc2nc3sc(C)c(C)c3c(=O)n12 | inactive | –
COc1ccc(Cl)cc1-c1cc(C(=O)NCC2CCCCC2)[nH]n1 | active: 8.2 µM | –
O=C(c1ccc2nc(-c3ccco3)c(-c3ccco3)nc2c1)N1CCN(c2ncccn2)CC1 | inconclusive [inhibitor, single point] | –
COC(=O)c1c(-c2cccnc2)csc1NC(=O)c1cc(C)on1 | inconclusive [inhibitor, single point] | –
CCn1c(O)c(N=NC(=O)c2cccs2)c2ccccc21 | active: 23.1 µM | –
COc1ccc(NC(=O)COC(=O)C2CCN(S(=O)(=O)c3ccccc3)CC2)cc1Cl | inactive | –
O=C(N/N=C/C(Br)=C/c1ccccc1)c1ccc([N+](=O)[O-])cc1 | active: 4.11 µM | –
NS(=O)(=O)c1cc(Br)c2c(c1)S(=O)(=O)NCN2 | inactive | –
COc1ccc(/C(O)=C/c2nc3ccc(C(=O)NCCc4cccc(C)c4)cc3[nH]c2=O)cc1OC | active: 2.91 µM | –
CC1(C)Cc2c(sc3nc(-c4cc5ccccc5o4)n(N)c(=O)c23)CO1 | inconclusive [inhibitor, single point] | –
Cn1ncc(Cl)c(Oc2ccc(C(C)(C)C)cc2)c1=O | inconclusive [inhibitor, single point] | –
CCOC(=O)c1c(NC(=O)COc2cccc3c2CCN(CC)C3=O)sc2c1CCC2 | inconclusive [inhibitor, partial curve, poor fit] | –
